We go through 54 compounds from ChEMBL document CHEMBL4888484, “Replenishing the malaria drug discovery pipeline: Screening and hit evaluation of the MMV Hit Generation Library 1 (HGL1) against asexual blood stage Plasmodium falciparum ,using a nano luciferase reporter read-out” (2022).

Molecules are shown by their SMILES. The campaign covered roughly 150,000 compounds. About 540 (0.36%) showed an effect of 50% or more. Some of the results follow.

This assay deals with Plasmodium falciparum. Briefly: Primary screen in NF54 nanoGlo assay, in single point, at 2uM, 72h; a lower Z score goes with more inhibition. The class given is functional, Erythrocyte. Conditions: timepoint 72 hour.
One may read the % Inhibition as the change of the read-out against control, counted positive when it falls. For `Cc1cnc(CN2CC3(CCC2=O)CCN(C(=O)Nc2ccccc2)CC3)cn1`, the “% Inhibition” value is recorded as 2% and the Z score is reported as -0.31.

As to `CC1CCN(c2ncnc(Oc3ccc(F)cc3)c2N)CC1`, the “% Inhibition” value is reported as -6% and the Z score was 0.86.

`O=C(c1ccco1)N1CCN(Cc2cnc3n2CCOC3)CC1`: the “% Inhibition” value is -2% and the Z score is 0.2.

As to `Cc1cccc(CN(CC2CCN(C3Cc4ccccc4C3)CC2)C[C@H]2CCCO2)n1`, the “% Inhibition” value is on record as -1% and the Z score was 0.18.

In the case of `CCCc1nc(C)c(CNC(=O)Nc2cccc(CN)c2)s1`, the “% Inhibition” value is reported as -3% and the Z score is 0.44.

`Cc1c(C(=O)[C@H](C#N)c2nnc(N3CCOCC3)n2-c2ccccc2)nnn1-c1ccc(F)cc1`: the “% Inhibition” value is -7% and the Z score is 1.18.

As to `COc1ccc(-c2cc(C(F)(F)F)n(-c3cc(C)nc(N)n3)n2)cc1`, the “% Inhibition” value is recorded as -8% and the Z score was 1.24.

With `FC(F)(F)c1ccc(N[C@H]2CCc3[nH]ncc3C2)nc1`, the “% Inhibition” value is recorded as -18% and the Z score was determined as 1.61.

For `Nc1cc(-c2cc3ccccc3o2)ccn1`, the “% Inhibition” value is 3% and the Z score is on record as -0.44.

For the compound `CC(C)(C)OC(=O)N1CCC2C(CCCN2C(=O)NCCC#N)C1` (stereo not drawn), the “% Inhibition” value stood at 7% and the Z score is recorded as -0.98.

Consider `CCCCN1CCN(C(=O)c2cccc3cnccc23)[C@H]2CS(=O)(=O)C[C@H]21`, for which the “% Inhibition” value was -13% and the Z score is reported as 1.55.

For `CCC(CC)NC(=O)[C@H]1CC(=O)N(CCc2c[nH]c3ccc(C)cc23)C1`, the “% Inhibition” value is given as -11% and the Z score worked out at 2.01.

For the compound `CNC(=O)c1cc(Cl)cc(F)c1N`, the “% Inhibition” value is listed as -6% and the Z score was determined as 1.14.

For the compound `O=C(CCCc1ccccc1)[C@H]1CCCNC1`, the “% Inhibition” value turned out to be 5% and the Z score is recorded as -0.73.

As to `CN1CCC(N(CCc2ccccc2)S(=O)(=O)c2cnn(C)c2)CC1`, the “% Inhibition” value was -4% and the Z score is reported as 0.54.

Consider `CCN(Cc1nc(C)no1)C(=O)N[C@H]1CC(=O)N(c2ccc(Cl)cc2)C1`, for which the “% Inhibition” value is given as -13% and the Z score was 2.51.

Take `Cc1cccc(C(=O)Nc2ccccc2C(=O)OCc2ccc(S(=O)(=O)c3ccccc3)cc2)c1`: the “% Inhibition” value was -3% and the Z score was 0.34.

As for `CN(C)C(=O)N1CC[C@@]2(O)CCN(Cc3ccc(C4CCCC4)s3)C[C@H]2C1`, the “% Inhibition” value is on record as -11% and the Z score turned out to be 1.22.

`Cc1cc(-n2nc(C)cc2NS(=O)(=O)c2cccc(C(C)C)c2)nc(C)n1`: the “% Inhibition” value is 29% and the Z score is given as -2.93.

Take `CNC(=O)c1cc2cc(N3C(=O)N[C@H](C)C3=O)ccc2[nH]1`: the “% Inhibition” value amounted to 2% and the Z score is on record as -0.47.

For `CC1CC(NC(=O)c2ccc(Oc3ccccc3)cc2)CC(C)(C)C1` (stereo not drawn), the “% Inhibition” value was -9% and the Z score was 1.23.

As to `COc1ccc(Cl)cc1NC(=O)[C@@H](NC(C)=O)C(C)C`, the “% Inhibition” value was 11% and the Z score is given as -1.01.

For the compound `O=C(CC(F)(F)F)N1CCC[C@H](Oc2ncccn2)C1`, the “% Inhibition” value came out at 14% and the Z score was -1.95.

For `CN(C)Cc1ccc(CN(C)Cc2c[nH]cn2)cc1`, the “% Inhibition” value came to 5% and the Z score is recorded as -0.83.

Consider `O=C(NCc1ccc(Cl)cc1)C(=O)Nc1nnc(C2CC2)s1`, for which the “% Inhibition” value was -10% and the Z score came out at 0.9.

As to `COc1ccc(CNc2nc(C3CCCC3)nc3c2CCOCC3)cc1`, the “% Inhibition” value is -9% and the Z score turned out to be 0.89.

Regarding `FC1(CNc2ccc3c(c2)CCOC3)CC1`, the “% Inhibition” value is on record as -13% and the Z score was determined as 2.46.

On to `CCn1nnc(C)c1C(=O)N1CCn2c(cc3ccc(Cl)cc32)C1`, for which the “% Inhibition” value is recorded as 2% and the Z score was -0.16.

For `N#Cc1cc2n(n1)CCN(C[C@]1(O)CCCN(CCc3ccccc3)C1=O)C2`, the “% Inhibition” value was determined as 3% and the Z score is on record as -0.65.

In the case of `COc1ccc(C[C@H](CO)CNC(=O)Nc2nc(C)c(C)s2)cc1O`, the “% Inhibition” value is given as -6% and the Z score is 1.23.

For `CC(=O)NC1(c2noc(CCC(=O)NC(C)(C)C)n2)CCCCCC1`, the “% Inhibition” value is -34% and the Z score is given as 4.03.

Take `N#Cc1cc(NC[C@H]2C[C@@H](O)C2)ccc1F`: the “% Inhibition” value is listed as 14% and the Z score is -2.

Turning to `COc1ccc(C[C@@]2(CCC(=O)N3CCN(c4cc(Cl)ccc4C)CC3)CCC(=O)N2)c(F)c1`, the “% Inhibition” value worked out at 6% and the Z score was -0.72.

Turning to `CN1CCC(NS(=O)(=O)CC2CCCCC2)CC1`, the “% Inhibition” value was 4% and the Z score is listed as -0.52.

For `Cc1ccc2c(c1)OC[C@H](CC(=O)NC1CCCCC1)N2Cc1ccccc1`, the “% Inhibition” value was -9% and the Z score is 1.28.

Take `Cc1cccc(O[C@H]2COCCN(C(=O)N3CCOCC3)C2)n1`: the “% Inhibition” value amounted to 25% and the Z score is on record as -2.81.

Consider `Cc1cc(C)c2c(CC(=O)N3C[C@@H](CN(C)CCO)[C@@H](CO)C3)coc2c1C`, for which the “% Inhibition” value is -1% and the Z score was 0.07.

Turning to `CC[C@H](O)Cn1ncnc1-c1ccc(-n2cnnc2)cc1`, the “% Inhibition” value amounted to 7% and the Z score is on record as -1.06.

Consider `O=C(CN1CCCC1=O)N[C@H]1COCC[C@@H]1OCc1ccccn1`, for which the “% Inhibition” value is on record as -11% and the Z score was found to be 1.99.

For `CCOC(=O)c1cn([C@@H](CC)Cn2ccnc2)cc(Oc2ccccc2)c1=O`, the “% Inhibition” value was 6% and the Z score was -0.76.

`C=CCO[C@@H](C)C(=O)N1CCC(C#N)CC1`: the “% Inhibition” value is on record as -3% and the Z score turned out to be 0.54.

Regarding `Cc1cccc(N2C[C@H](C)N(C(=O)c3ccc4[nH]c(C)c(C)c4c3)CC2=O)c1`, the “% Inhibition” value is reported as -15% and the Z score stood at 1.49.

As to `Cc1ccc(S(=O)(=O)N2CCC3(CC2)N[C@@H](C(C)C)C(=O)N3CC2CC2)cc1`, the “% Inhibition” value is -6% and the Z score is on record as 0.61.

In the case of `Cc1cccc(CN2CCC[C@@]3(CCN(C(=O)CCc4ccncc4)C3)C2)c1`, the “% Inhibition” value is given as 7% and the Z score was -1.08.

Take `COCCCN(CCC(=O)NCCc1ccccc1)C(=O)c1cc(C)oc1C`: the “% Inhibition” value is 2% and the Z score was -0.18.

On to `Cc1ccc(CNC(=O)N2CCC(C(C)O)C2)c(N2CCCC2)c1` (stereo not drawn), for which the “% Inhibition” value is recorded as -8% and the Z score amounted to 1.13.

Take `COc1nc(NC(=O)c2cncc(Br)c2)n[nH]1`: the “% Inhibition” value is on record as 3% and the Z score is given as -0.58.

Take `Cc1nnc2n1CCN(C(=O)c1cc(C)n(C3CC3)c1C)C2`: the “% Inhibition” value turned out to be 3% and the Z score is given as -0.66.

As for `Cc1cc(-c2cc(NC(=O)c3ccc(Br)cc3)n(-c3ccccc3)n2)c(C)n1-c1cccc(C(F)(F)F)c1`, the “% Inhibition” value stood at 8% and the Z score was -1.57.

Regarding `CC(C)CCn1c(=O)c2sccc2n(CC(=O)NC2CCCC2)c1=O`, the “% Inhibition” value is listed as -2% and the Z score is reported as 0.27.

Consider `O=c1[nH]c2c(c(=O)n1C1CCCCC1)CC=C2`, for which the “% Inhibition” value is reported as -58% and the Z score came to 6.83.

`Cc1c(CN(C)CC2(C)COC2)oc2ccccc12`: the “% Inhibition” value worked out at 1% and the Z score was -0.13.

For `COc1ccnc(CNC(=O)c2cc(CO)ccn2)c1`, the “% Inhibition” value was determined as 16% and the Z score is -2.09.

Consider `CCS(=O)(=O)Cc1nnc(-c2ccc(Cl)cc2Cl)o1`, for which the “% Inhibition” value is recorded as -2% and the Z score is 0.44.
